Data taken from paper PMC4336329 (PLoS ONE, 2015).
The whole screen tested about 310,000 compounds, of which about 2,200 (0.71%) showed an effect of 50% or more. The effect is printed as a negative number. The list shows a part of the results.

Target: human ether-à-go-go-related gene (hERG) potassium channel (human, UniProt Q12809)
Assay: primary screen, population patch clamp on CHO cells stably expressing hERG

Sequence of human ether-à-go-go-related gene (hERG) potassium channel (Q12809 whole entry, looked up): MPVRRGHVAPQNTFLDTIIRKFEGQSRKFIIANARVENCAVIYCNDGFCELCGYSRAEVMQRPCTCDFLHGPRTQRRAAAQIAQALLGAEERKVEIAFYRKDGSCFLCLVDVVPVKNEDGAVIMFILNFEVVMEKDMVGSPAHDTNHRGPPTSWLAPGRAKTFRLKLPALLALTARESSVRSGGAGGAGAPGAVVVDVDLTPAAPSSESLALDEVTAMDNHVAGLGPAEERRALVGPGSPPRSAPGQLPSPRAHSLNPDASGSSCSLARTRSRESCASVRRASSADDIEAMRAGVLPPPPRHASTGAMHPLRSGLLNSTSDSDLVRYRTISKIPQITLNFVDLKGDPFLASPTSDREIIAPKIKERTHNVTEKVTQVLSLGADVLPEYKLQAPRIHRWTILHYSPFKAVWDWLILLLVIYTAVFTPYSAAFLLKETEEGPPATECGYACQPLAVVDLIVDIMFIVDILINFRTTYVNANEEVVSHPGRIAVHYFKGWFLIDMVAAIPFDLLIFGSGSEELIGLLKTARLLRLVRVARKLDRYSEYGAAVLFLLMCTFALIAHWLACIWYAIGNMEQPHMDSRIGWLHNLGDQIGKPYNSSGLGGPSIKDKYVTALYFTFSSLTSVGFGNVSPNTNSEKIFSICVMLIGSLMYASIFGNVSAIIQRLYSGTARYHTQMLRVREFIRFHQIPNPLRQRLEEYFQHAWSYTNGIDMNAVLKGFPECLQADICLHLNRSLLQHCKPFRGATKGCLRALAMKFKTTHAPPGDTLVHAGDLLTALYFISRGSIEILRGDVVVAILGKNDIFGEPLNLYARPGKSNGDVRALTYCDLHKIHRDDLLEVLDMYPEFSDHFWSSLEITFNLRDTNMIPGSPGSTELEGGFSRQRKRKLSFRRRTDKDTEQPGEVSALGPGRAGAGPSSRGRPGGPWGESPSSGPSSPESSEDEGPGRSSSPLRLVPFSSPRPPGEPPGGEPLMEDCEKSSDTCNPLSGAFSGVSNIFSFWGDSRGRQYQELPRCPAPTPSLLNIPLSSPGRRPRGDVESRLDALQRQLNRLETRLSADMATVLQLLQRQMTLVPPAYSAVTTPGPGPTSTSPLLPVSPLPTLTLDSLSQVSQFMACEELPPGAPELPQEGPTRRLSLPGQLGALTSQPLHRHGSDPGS

SMILES	hERG current change (%, negative = inhibition) at 1uM
O=C(COC(=O)CCC1CCCC1)Nc1cccc(S(=O)(=O)N2CCOCC2)c1	10.9%
CCCc1cc(=O)n2c([nH]c3ccccc32)c1C#N	11.3%
Cc1oc2nc(SCC(=O)NCCCO)nc(N)c2c1C	3.07%
CS(=O)(=O)N(CCc1ccccc1)CC(=O)Nc1ccc(Br)cc1F	12.5%
COc1cccc(CNC(C)(C)CO)c1OCc1ccc(Cl)cc1.Cl	-5.65%
Br.C(CCCN1CCCCC1)CCN1CCCCC1	6.68%
Cc1ccc(C2CC(c3cccs3)=NN2C(=O)CSc2nc(=O)n3cc(C)ccc3n2)cc1 (stereo not drawn)	-25.5%
CCOc1ccc(OCCC(=O)N2CCN(S(=O)(=O)c3cccc(F)c3)CC2)cc1	6.58%
CC(=O)NCCc1nc2ccccc2n1Cc1cc(C)ccc1C	10.5%
CCOC(=O)C1CCN(S(=O)(=O)c2ccc3[nH]c(=O)c(=O)[nH]c3c2)CC1	6.09%
Cc1cccn2c(=O)c3c(nc12)N1CCC(Cc2ccccc2)CC1C1(C3)C(=O)N(C)C(=O)N(C)C1=O (stereo not drawn)	7.21%
CC(C)c1ccc(C(=O)NCCCN2CCOCC2)cc1	2.78%
Cc1ccc(S(=O)(=O)N2CCCCC2)cc1NC(=O)Cn1cnnn1	3.79%
O=C(CN1C(=O)c2ccccc2C1=O)N1CCN(C2c3ccccc3-c3ccccc32)CC1	14%
O=C(NC1CCCCC1)c1ccc(CS(=O)(=O)c2ccc(Cl)cc2)o1	7.6%
COc1ccc(CNC(=O)c2cc3c(=O)n4ccccc4nc3n(CC3CCCO3)c2=N)cc1 (stereo not drawn)	-80.4%
Nc1c(-c2ccc(Cl)cc2)nnn1-c1ccccc1	-3.84%
O=C1C2C3C=CC(CC3)C2C(=O)N1c1ccc(Br)cc1[N+](=O)[O-] (stereo not drawn)	12.4%
Cc1ccc(OC(C)C(=O)Nc2ccccc2C(=O)NCc2cccnc2)cc1C (stereo not drawn)	13.3%
c1ccc(-c2cn(C[C@H]3CC[C@H](Cn4cc(-c5ccccn5)nn4)O3)nn2)nc1	3.21%
COc1ccc(NC(=O)Cn2nnc(-c3ccccc3NS(=O)(=O)c3ccccc3)n2)cc1	6.08%
NC(=O)C(=O)N/N=C/c1c2ccccc2cc2ccccc12	-4.48%
COc1cc(OC)nc(/N=C/NO)n1	17.2%

SMILES	hERG current change (%, negative = inhibition) at 1uM
COc1ccc(NCN2C(=O)CCC2=O)cc1	5.32%
Cc1cc(C)c2nc(NC(=O)c3cc(C)on3)sc2c1	-0.226%
CCN(CC)CC(O)COc1ccccc1C(=O)CCc1ccccc1 (stereo not drawn)	7.28%
C/C(=N\NC(=O)CN(c1ccccc1Br)S(C)(=O)=O)c1cccs1	14.9%
CCCC(=O)Nc1cnc(NC(=O)c2cccc(F)c2)cc1C	6.68%
C=CCn1c(O)c(N=NC(=S)Nc2ccccc2F)c2ccccc21	4.98%
CCOc1cc(C(=O)NCCCn2ccnc2)cc(OCC)c1OCC	4.75%
O=C1N(c2ccccc2)C(c2ccccc2)N2CCCN12 (stereo not drawn)	14.1%
O=C(O)CCCN=C1CCCc2ccccc2N1	0.516%
CN(C)S(=O)(=O)c1ccc(S(=O)(=O)N2CCCC(C(=O)NC3CCCC3)C2)cc1 (stereo not drawn)	4.55%
Cc1cc(C)cc(N(CC(=O)Nc2ccc(Br)cc2)S(=O)(=O)c2c(C)[nH]c(=O)[nH]c2=O)c1	-11.5%
O=C(CSc1nnc(-c2ccccc2F)o1)NC1CCCCC1	3.75%
O=C(Cc1ccc(Cl)c(Cl)c1)Nc1ccc(SC(F)F)cc1	11.2%
O=C(Cn1cnc2c(nnn2Cc2ccccc2)c1=O)N1CCN(c2ccccc2)CC1	0.418%
O=S(=O)(c1cnc(Cl)c(Cl)c1)N1CCCc2ccccc21	6.46%
CCn1c(SCC(=O)NCc2ccccc2)nnc1-c1ccccc1O	-5.21%
C/C(=N\NC(=O)c1nnn(-c2nonc2N)c1CSc1ccc(Cl)cc1)c1ccco1	5.24%
Cc1cccc(C)c1NC(=O)C(NC(=O)c1ccccn1)c1ccc([N+](=O)[O-])cc1 (stereo not drawn)	16.3%
Cc1ccc(C(C(=O)NC2CCCCC2)N(C(=O)c2csnn2)C2CC2)o1 (stereo not drawn)	-39.3%
COc1ccccc1NC(=O)CN1C(=O)COc2ccc(S(=O)(=O)N3CCC(C)CC3)cc21	13.6%
Cc1ccc(-n2c(C)cc(/C=C3/SC(=O)N(CC(=O)N4CCOCC4)C3=O)c2C)nc1	10.3%
CC(C)Cn1c(N)c(C(=O)CCl)c(=O)n(C)c1=O	13%
O=c1cc[nH]c2ccc(Cl)cc12	9.23%

SMILES	hERG current change (%, negative = inhibition) at 1uM
Cc1cc(N2CCN(C(=O)Nc3ccccc3C#N)CC2)c2ccccc2n1	-44.5%
O=C1N(Cc2ccc(F)cc2)CCN1c1ccc(F)cc1	-23.3%
NS(=O)(=O)c1ccc(CCNCC(=O)N2CCC(Cc3ccccc3)CC2)cc1.O=C(O)C(=O)O	1.8%
CC(=O)c1cccc(S(=O)(=O)NC(C)C2CC3CCC2C3)c1 (stereo not drawn)	1.98%
CC1(CCl)CN1S(=O)(=O)c1ccccc1 (stereo not drawn)	10.7%
Cc1cccc(-n2c(SCC(=O)O)nc3sc4c(c3c2=O)CCC4)c1	11.9%
Cc1ccccc1C(=O)N1CCN(c2ccc(NC(=S)NC(=O)c3cccs3)cc2)CC1	8.14%
O=C(COC(=O)/C=C/c1cccs1)Nc1nc(-c2ccccc2)cs1	10.9%
O=C(CN1CCS(=O)(=O)CC1)N/N=C/c1cccc(C(F)(F)F)c1	4.18%
CCOC(=O)Cn1c(C)c(Br)c(=O)c2cccc(C)c21	12.8%
Cc1cc(-c2ccc(S(=O)(=O)N3CCc4ccccc4C3)s2)on1	14.4%
O=C(CSc1nnc(-c2ccc(C(F)(F)F)cn2)s1)c1ccccc1	1.48%
CC(C)(CO)Cc1cc(C(C)(C)C)c(O)c(C(C)(C)C)c1	6.72%
CCOC(=O)N1CCN(CC(O)COC2CC(C)CCC2C(C)C)CC1.Cl (stereo not drawn)	-3.48%
CCCCNCCOCCOc1ccccc1-c1ccccc1.O=C(O)C(=O)O	-6.89%
Cc1ccccc1C=Nc1ccccc1C(N)=O	3.15%
CCc1ccc(C2CC(c3ccccc3)Nc3nc(N)nn32)cc1 (stereo not drawn)	6.4%
CNS(=O)(=O)c1cn(CC(=O)N(C)Cc2ccccc2)cc1S(=O)(=O)NC	0.305%
CCOc1ccccc1N(C(=O)Nc1cccc(Cl)c1)C1=NC(C)CS1 (stereo not drawn)	11.4%
Cc1cc2[nH]c(=O)c(=O)[nH]c2cc1S(=O)(=O)N1CCN(c2cccc(Cl)c2)CC1	13.5%
Cn1cc(S(=O)(=O)N2CCCC2)cc1C(=O)Nc1cccc(C(F)(F)F)c1	13.3%
Cc1ccc(OCc2nnc(SCc3cc(=O)[nH]c4ccccc34)n2-c2ccccc2)cc1	-3.35%
CCCC/C(O)=C1\C(=O)CC(C)(C)CC1=Nc1ccc(OC)cc1	14.8%

SMILES	hERG current change (%, negative = inhibition) at 1uM
CS(=O)(=O)c1ccc2nc(NC(=O)C3CCCCC3)sc2c1	6.47%
COCc1cc(C)nc2sc(C(=O)N3CCN(c4ccccc4)CC3)c(N)c12	2.51%
O=C(/C=C/c1cccs1)NCc1cccs1	-2.1%
COc1ccccc1CNC(=O)C1CCN(S(=O)(=O)c2cccc3nonc23)CC1	11.5%
O=C(N/N=C\c1cccc(Cl)c1)c1ccc(Cn2cccn2)o1	-27.5%
Cn1c(-c2ccccc2)c(C(=O)CC#N)c2ccccc21	13%
O=C(O)c1ccc(NCCc2ccc(Cl)cc2)c([N+](=O)[O-])c1	1.71%
O=[N+]([O-])c1ccc(Sc2nccn2Cc2ccccc2)cc1	-14.5%
O=C(NCC1CCCO1)c1ccc2c3n(nc2c1)-c1ccccc1CO3 (stereo not drawn)	8.17%
O=C(NCCO[N+](=O)[O-])c1cccnc1	10.9%
CCCOc1ccc(C2C(C(=O)c3ccc(C)o3)=C(O)C(=O)N2Cc2ccco2)cc1 (stereo not drawn)	14%
COc1ccc(-c2noc(CCC(=O)NCc3cc(Br)ccc3OC)n2)cc1	13.6%
Cc1ccc(OCC(=O)N/N=C/C=C/c2ccco2)cc1C	3.33%
CCN1CCN(C(=O)/C(=C/c2ccco2)NC(=O)c2ccccc2)CC1	-57.1%
CC(=O)N1CCc2cc(Br)cc(S(=O)(=O)N3CCc4ccccc43)c21	-1.76%
NC(=S)NC1CCS(=O)(=O)C1 (stereo not drawn)	8.04%
Cc1cccc(OCCCCCN2CCOCC2)c1	9.94%
COc1ccc(N2C(=O)N(Cc3ccc(C)cc3)c3ccccc3S2(=O)=O)cc1	9.52%
O=C(COC(=O)CCc1c[nH]c2ccccc12)NCCc1ccccc1	16.9%
CCOC(=O)c1cnc2ccc(OCC)cc2c1NCCCN1CCOCC1.Cl	-30.2%
Cc1ccc(N2C(=O)CS/C2=C(\C(Cl)=C(Cl)Cl)[N+](=O)[O-])cc1	17.1%
